Measured values reported in the supplement of paper PMC9912026.
The source gives many values for each of these; only a part stands here.

Tested on: A375_Cra_F7_5/13
Experiment: pERK immunofluorescence, normalised; higher = more ERK phosphorylation
Details: vemurafenib 1 µM, drug treatment time 24 h
Procedure: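 A375 or A375 CRISPRa-EGFR (A375_Cra_F7_5/13) cells were adapted for 24 h to a cobimetinib dose series, with or without 1 uM vemurafenib, then stimulated with EGF (100 ng/mL) or mock medium and fixed at the indicated times. pERK was measured by immunofluorescence as the population mean normalised to baseline, with the SD of technical replicates (n=2).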

O=C(c1ccc(F)c(F)c1Nc1ccc(I)cc1F)N1CC(O)([C@@H]2CCCCN2)C1 [cobimetinib]
pERK immunofluorescence
Details | cobimetinib 31.62 pM | cobimetinib 0.0001 µM | cobimetinib 0.000316228 µM | cobimetinib 0.001 µM | cobimetinib 0.003162278 µM | cobimetinib 0.01 µM | cobimetinib 0.031622777 µM | cobimetinib 0.1 µM | cobimetinib 0.316227766 µM | cobimetinib 1 µM
EGF 0 ng/mL, time after EGF/mock 0.083 h | 0.226 | 0.226 | 0.221 | 0.192 | 0.175 | 0.1338 | 0.115 | 0.104 | 0.0994 | 0.0994
EGF 0 ng/mL, time after EGF/mock 0.5 h | 0.232 | 0.228 | 0.222 | 0.21 | 0.176 | 0.182 | 0.162 | 0.12 | 0.09439 | 0.09596
EGF 0 ng/mL, time after EGF/mock 2 h | 0.184 | 0.189 | 0.1813 | 0.161 | 0.147 | 0.124 | 0.1133 | 0.103 | 0.09944 | 0.09921
EGF 0 ng/mL, time after EGF/mock 8 h | 0.1451 | 0.15 | 0.149 | 0.126 | 0.113 | 0.103 | 0.0871 | 0.08363 | 0.0835 | 0.082095
EGF 0 ng/mL, time after EGF/mock 24 h | 0.149 | 0.14 | 0.147 | 0.13839 | 0.124 | 0.125 | 0.104 | 0.0978 | 0.0856 | 0.08216
EGF 100 ng/mL, time after EGF/mock 0.083 h | 1.36 | 1.35 | 1.27 | 1.313 | 1.319 | 1.24 | 1.06 | 0.71 | 0.189 | 0.11
EGF 100 ng/mL, time after EGF/mock 0.5 h | 1.27 | 1.21 | 1.274 | 1.23 | 1.268 | 1.25 | 1.16 | 0.953 | 0.6 | 0.142
EGF 100 ng/mL, time after EGF/mock 2 h | 0.796 | 0.8007 | 0.783 | 0.7981 | 0.775 | 0.697 | 0.617 | 0.474 | 0.271 | 0.1223
EGF 100 ng/mL, time after EGF/mock 8 h | 0.604 | 0.581 | 0.5787 | 0.566 | 0.5479 | 0.4851 | 0.421 | 0.2992 | 0.161 | 0.0943
EGF 100 ng/mL, time after EGF/mock 24 h | 0.761 | 0.728 | 0.732 | 0.7417 | 0.695 | 0.6199 | 0.526 | 0.377 | 0.186 | 0.0932
